Measurements reported in PubChem BioAssay AID743286 (National Center for Advancing Translational Sciences (NCATS), 2014).
The campaign covered roughly 1,100 compounds. About 340 (31%) were called active. The inconclusive results got no clear call from the source; some entries with a clear call stand among them for comparison. Calls follow the shape of the dose curve; as a rule, active = well fitted inhibition curve with a large enough effect; inconclusive = small, poorly fitted or top-dose-only effect; inactive = flat fitted curve, though single readings scatter. Where the call is inconclusive, the potency comes from a doubtful curve fit.

Molecular target: Phosphatidylinositol 5-phosphate 4-kinase type-2 alpha (Homo sapiens) (UniProt P48426)
Assay: qHTS for Inhibitors of PI5P4K: Confirmation in Primary Assay; also: nearly all actives have a fitted effect of over 65% in size
Conditions: PI5P4Kalpha enzyme, ADP-Glo luminescence, 60 min; series mostly up to 76.9 µM
Summary of the method: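 ADP-Glo luminescence end-point quantifies ADP from 60-min room-temperature turnover of PI5P by PI5P4Kα. ATP 5 µM final; buffer 0.038 M HEPES pH 7.4, 0.28 mM EGTA, 0.1% CHAPS, 5% DMSO.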
Potency is read from the fitted curve at half-maximal effect; tags tell the direction and shape of the fitted curve.

UniProt P48426, sequence (P48426 whole entry, looked up): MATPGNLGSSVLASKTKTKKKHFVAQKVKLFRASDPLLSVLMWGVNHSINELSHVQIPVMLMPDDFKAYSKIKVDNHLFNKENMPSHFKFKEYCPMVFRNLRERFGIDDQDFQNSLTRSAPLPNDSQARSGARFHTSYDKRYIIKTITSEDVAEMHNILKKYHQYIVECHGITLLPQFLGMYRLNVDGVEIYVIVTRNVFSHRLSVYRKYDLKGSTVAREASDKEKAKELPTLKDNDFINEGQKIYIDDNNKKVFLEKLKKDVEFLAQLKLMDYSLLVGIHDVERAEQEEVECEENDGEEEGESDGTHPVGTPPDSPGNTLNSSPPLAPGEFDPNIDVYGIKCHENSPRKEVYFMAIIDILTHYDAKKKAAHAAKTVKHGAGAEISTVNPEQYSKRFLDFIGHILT

Compound	Potency
Cc1cc([N+](=O)[O-])cc2c1NC(c1ccccn1)C1CC=CC21 (stereo unspecified)	inconclusive: 12.6 µM [inhibitor, partial curve]
Cc1cc(C)c(NC(=O)OCCN2CCOCC2)c(C)c1	inactive
Clc1ccc(-c2nnc(-c3ccco3)nc2N2CCCCC2)cc1	inconclusive: 31.6 µM [inhibitor, partial curve]
COCCNC(=O)c1cc(-c2ccccc2)sc1N	inactive
COc1cccc(NC(=O)CN(C)C(=O)c2cc3c(s2)CCC3)c1	inconclusive: 15.8 µM [inhibitor, partial curve]
Cc1cccc2c(C(=O)N3CCN(C(=O)c4ccco4)CC3)cc(-c3cccc(Br)c3)nc12	inconclusive: 14.1 µM [inhibitor, partial curve]
O=C(CCC(=O)c1cccs1)Nc1ncccc1O	inconclusive: 12.6 µM [inhibitor, partial curve]
CC(=O)N1c2ccc(S(=O)(=O)NCCC(=O)N(C)C3CCCCC3)cc2CC1C (stereo unspecified)	inactive
O=C(c1cc2nc(C3CC3)cc(C(F)F)n2n1)N1CCOCC1	inconclusive: 31.6 µM [inhibitor, partial curve]
CC(C)N(CCC(=O)c1ccc2ccccc2c1)Cc1ccccc1	inactive
CSc1nc2c(c(=O)[nH]1)C(c1cccs1)C1=C(CCCC1=O)N2 (stereo unspecified)	inconclusive: 28.2 µM [inhibitor, partial curve]
CCCCCCCCN1C(=O)[C@H](CC(=O)NCc2ccc(C)o2)C[C@@]2(C(=O)OC)CC(C)(C)CC=C12	inactive
CCCN(C(=O)c1cccc(-n2cccc2)c1)c1c(N)n(Cc2ccccc2)c(=O)[nH]c1=O	active: 7.08 µM
Cc1cc(NC(=O)c2sc(Nc3ccc(F)cc3)nc2N)no1	inconclusive: 22.4 µM [inhibitor, partial curve]
O=C(CSc1nnc(-c2ccc(OC(F)F)cc2)o1)NC(=O)NCc1ccco1	inconclusive: 35.5 µM [inhibitor, partial curve]
Cc1ccc(-c2csc(NC(=O)c3ccccc3Cl)c2C(=O)O)cc1	inconclusive: 28.2 µM [inhibitor, partial curve]
O=C(COC(=O)c1ccco1)Nc1nc2c(F)c(F)c(F)cc2s1	inconclusive: 12.6 µM [inhibitor, partial curve]
O=S1(=O)CC(N2CCSCC2)CN1Cc1cn(Cc2ccc(F)cc2)nn1 (stereo unspecified)	inactive
O=C1Nc2cc(Cl)ccc2Nc2cscc21	inconclusive: 22.4 µM [inhibitor, partial curve]
CCN1CCN(C(=O)Cn2nc(-c3ccc(Cl)cc3)ccc2=O)CC1	inactive
O=C(c1ccc(OCCN2CCCCC2)cc1)c1c(-c2ccc(O)cc2)sc2cc(O)ccc12	inactive
COCCNc1nc(NCCOc2ccccc2)c2sc(-c3ccccc3)cc2n1	inconclusive: 31.6 µM [inhibitor, single point]
O=C(Nc1nc(-c2ccco2)c(-c2ccco2)s1)C1CC(=O)N(c2ccc3c(c2)OCCO3)C1 (stereo unspecified)	inconclusive: 11.2 µM [inhibitor, partial curve]
Clc1ccc2nc(-c3ccco3)c(Cc3ccsc3)n2c1	inconclusive: 14.1 µM [inhibitor, partial curve]

Compound	Potency
O=C(Nc1cccc(Cl)c1)Nc1nnc(-c2ccncc2)s1	inconclusive: 8.91 µM [inhibitor, full curve]
CC(C)C(=O)Nc1nnc(NC(=S)Nc2ccccc2)s1	active: 20 µM
Cc1cc(NS(=O)(=O)c2ccc(NC(=O)COc3ccc(Br)cc3)cc2)nc(C)n1	inactive
Cc1ccc(C)c(NC(=O)CN(C)C(=O)c2cccc(-n3cccc3)c2)c1	inconclusive: 15.8 µM [inhibitor, partial curve]
CCOC(=O)c1cnc2cc(C)ccn2c1=O	inactive
Clc1cccc(Cl)c1CNc1ccc(N2CCCC2)cc1	inconclusive: 8.91 µM [inhibitor, partial curve]
COc1cccc2c(C)c(C(=O)O)[nH]c12	inconclusive: 12.6 µM [inhibitor, partial curve]
CC(C)Cc1ccc(CN2C(C)C(=O)N(Cc3cn(Cc4ccco4)nn3)CCS2(=O)=O)cc1 (stereo unspecified)	inconclusive: 15.8 µM [inhibitor, partial curve]
COc1cc(NC2=Nc3cccc4cccc2c34)cc(OC)c1OC	inactive
Cc1csc(=O)n1CCC(=O)OCC(=O)Nc1ccc(N2CCOCC2)cc1	inactive
Cc1cc(Br)cn2c(Cc3ccsc3)c(-c3ccco3)nc12	inconclusive: 15.8 µM [inhibitor, partial curve]
CN1OC[C@@H]2CN3C(=O)N(c4cccc5ccccc45)c4ccccc4[C@@H]3C[C@@H]21	inactive
CSc1cccc(NC(=O)c2cnn3ccccc23)c1	inconclusive: 35.5 µM [inhibitor, partial curve]
COc1ccc2c(CC(=O)OCC(=O)Nc3cccc(C)c3)coc2c1	inconclusive: 12.6 µM [inhibitor, partial curve]
Cc1c(-c2cc(C(=O)O)on2)cnn1C	inconclusive: 22.4 µM [inhibitor, partial curve]
CNC(=S)N(Cc1cccs1)Cc1cc2cc(OC)ccc2[nH]c1=O	inconclusive: 35.5 µM [inhibitor, partial curve]
COc1ccccc1N(CC(=O)NCc1ccco1)S(=O)(=O)c1ccc(C)cc1	active: 15.8 µM
CC(C)(C)NC(=O)Nc1ccc(Cn2cc(C(F)(F)F)ccc2=O)cc1	inactive
COc1ccc(-c2cc(C(F)F)n3ncc(C(=O)n4ccnc4C)c3n2)cc1	inactive
O=c1cc(CSc2nnc(-c3cccs3)n2Cc2ccccc2)nc2sc3ccccc3n12	inconclusive: 7.08 µM [inhibitor, partial curve]
CCCNc1c(F)c(F)c2c(C)c3ccccc3nc2c1F	inconclusive: 6.31 µM [inhibitor, full curve, poor fit]
COc1ccc(NC(=O)CSc2nnc(-c3ccco3)c(-c3ccco3)n2)cc1OC	inactive
O=C(NCC1CCCCC1)c1cccc([N+](=O)[O-])c1	inactive
CCCn1c(=O)c2[nH]c(-c3ccc(S(=O)(=O)O)cc3)nc2n(CCC)c1=O	active: 14.1 µM

Compound	Potency
CCc1nnc(NC(=O)c2cc(-c3ccco3)nc3ccccc23)s1	active: 3.55 µM
CCN(CC)CCCCCC(=O)Nc1ccccc1C(=O)Nc1ccccc1	inactive
COc1ccc(OCCCC(=O)Nc2nnc(C3CCCO3)s2)cc1 (stereo unspecified)	inconclusive: 28.2 µM [inhibitor, partial curve]
CCCn1c(C)cc(-c2csc(N)n2)c1C	inconclusive: 28.2 µM [inhibitor, partial curve]
COc1cc(C2CC(=O)N3CN(Cc4ccco4)CSC3=C2C#N)ccc1OCc1ccccc1 (stereo unspecified)	inconclusive: 22.4 µM [inhibitor, single point]
Cc1nnc(SCC(=O)N2N=C(c3ccc(Cl)cc3)CC2c2ccco2)[nH]c1=O (stereo unspecified)	inconclusive: 22.4 µM [inhibitor, partial curve]
O=C(Nc1cc(S(=O)(=O)N2CCOCC2)ccc1O)c1ccc(NS(=O)(=O)c2ccc(Cl)s2)cc1	active: 20 µM
O=C(NC1CCCC1)C(c1ccncc1)N(C(=O)c1csnn1)c1ccccc1F (stereo unspecified)	inactive
O=C(COC(=O)CCc1nc2ccccc2c(=O)[nH]1)Nc1ccc(Cl)cn1	inconclusive: 25.1 µM [inhibitor, partial curve]
Cc1cccc(C)c1NC(=O)C(c1ccc(C#N)cc1)n1c(=O)c(-c2ccco2)nc2ccccc21 (stereo unspecified)	inconclusive: 28.2 µM [inhibitor, partial curve]
Nc1sc2c(c1C(=O)c1ccccc1)CCCC2	inactive
CC(C)C(=O)N1CCN(c2ccccc2NC(=O)c2ccco2)CC1	inactive
COCCCN(C(=O)c1cc(-c2ccco2)nc2ccccc12)c1c(N)n(Cc2ccccc2)c(=O)[nH]c1=O	inconclusive: 20 µM [inhibitor, partial curve]
O=C(Oc1cccc2c(O)cccc12)c1ccco1	inconclusive: 20 µM [inhibitor, partial curve]
COC(=O)c1ccc2nc(-c3ccco3)c(Cc3ccc(OC)cc3C)n2c1	inconclusive: 22.4 µM [inhibitor, partial curve]
CC(=O)Nc1cc(-c2ccc(CO)cc2)cn2c(-c3ccc(F)c(Cl)c3)cnc12	inconclusive: 31.6 µM [inhibitor, partial curve]
CCCCCNC(=O)C(c1cc2ccccc2o1)n1c(=O)c(-c2ccco2)nc2ccccc21 (stereo unspecified)	inconclusive: 25.1 µM [inhibitor, partial curve, poor fit]
COC(=O)[C@]12CCCCC=C1N(Cc1cccc3ccccc13)C(=O)[C@H](CC(=O)NCc1ccc(C)o1)C2	inconclusive: 12.6 µM [inhibitor, partial curve]
COc1ccc(NC(=O)CN(C)C(=O)c2cccc(-n3cccc3)c2)cc1	inconclusive: 15.8 µM [inhibitor, partial curve]
N#Cc1c(SCC(=O)Nc2cccc(C(F)(F)F)c2)sc2c(O)cc(=O)[nH]c12	inconclusive: 17.8 µM [inhibitor, partial curve]
CCCN(C(=O)c1cc2c(s1)CCC2)c1c(N)n(Cc2ccccc2)c(=O)[nH]c1=O	inconclusive: 14.1 µM [inhibitor, partial curve]
COc1ccc(N(C(=O)c2ccccc2)S(=O)(=O)c2cccs2)cc1	inactive
CSCCOC(=O)c1[nH]c2c(c1C)C(=O)CC(c1ccco1)C2 (stereo unspecified)	inconclusive: 28.2 µM [inhibitor, partial curve]
